# Measurements reported in publication PMC6212790.
# The list shows a part of the results. At the low end of the ranking the order means little.
# Target: T1, GST-Rok (full length) (UniProt O34857)
# T1 sequence: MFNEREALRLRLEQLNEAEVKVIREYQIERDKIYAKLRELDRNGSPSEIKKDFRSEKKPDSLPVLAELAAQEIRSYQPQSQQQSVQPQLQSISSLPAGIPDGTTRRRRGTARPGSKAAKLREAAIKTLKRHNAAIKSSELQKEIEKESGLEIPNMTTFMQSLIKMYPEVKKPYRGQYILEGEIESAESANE
# Assay: protein binding microarray;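 further: rank score from −0.5 (least bound) to 0.5 (best bound)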
# Details: Rok is a gene silencer of Bacillus subtilis; high values mean tight binding; most listed sequences are background and not binding sites; double strand, one strand shown
row,Sequence,binding signal [E-score]
1,CGGCTTCC,-0.283
2,CTCCTCTA,-0.0263
3,AATCCAGG,-0.0693
4,CCTCCAAC,-0.135
5,GAGCCAAA,-0.152
6,CCGCTCTC,-0.349
7,TGATCAAA,0.13
8,AACTGAAC,0.12
9,AGCCTTAT,-0.137
10,ATGGTTCC,-0.111
11,CGAGTCAG,-0.171
12,ACGTCGAG,-0.0266
13,ACGGTTGC,-0.00987
14,AGCTATTG,0.177
15,AGCCGAAC,-0.0778
16,CACAAAAC,0.0504
17,CTTATTGC,0.0358
18,CATGCCAG,-0.138
19,AACATTGC,0.133
20,AGATGATA,0.219
21,AGAAAGCC,-0.101
22,ACTAGACG,-0.0512
23,CTAACCAA,0.178
24,CAATCGGG,-0.12
25,ACATTGCG,0.00807

row,Sequence,binding signal [E-score]
1,AGTCCGAT,-0.025
2,ATGAGGAA,-0.168
3,AATAGCCC,0.014
4,CCGTCAGC,-0.321
5,CGTGGCGC,-0.354
6,GCGAATCC,-0.0665
7,ATATCAAC,0.271
8,AGAGCTCT,-0.0778
9,AGTTCGGG,-0.0319
10,ACTTCCCT,0.0316
11,CAATGATG,0.161
12,CTACCCTA,0.224
13,GTTAGTTA,0.258
14,AAAGACCG,-0.163
15,CATAGAAG,0.23
16,AACAAGTT,0.0961
17,GAAGCTTC,-0.0784
18,TGCTACAA,0.307
19,AGCGTGAC,-0.254
20,CGTACACG,-0.0387
21,CCAGGGAG,-0.272
22,AGGGGGAT,-0.433
23,GAGGCCAC,-0.162
24,AACACCGC,-0.108
25,AACTAGAC,0.103

row,Sequence,binding signal [E-score]
1,CTGTTAAC,-0.0495
2,AGAGGCCT,-0.313
3,ACGAGCAC,-0.0937
4,CTAGGGAA,-0.0395
5,AAAACTCG,-0.00184
6,AATACCGA,0.239
7,AGGTGCTC,-0.257
8,GAGATATC,0.181
9,AATCACGG,-0.0252
10,AATTCAGC,0.0855
11,AAGCTCCG,-0.0493
12,CGCGAGAA,-0.0886
13,CTTGCCAA,-0.15
14,AAGGTGCC,-0.184
15,CCGTTTGA,-0.000462
16,TAAGGGGA,-0.243
17,GCTTGCTA,0.101
18,ACCACTCA,0.182
19,CAAGGAAG,-0.15
20,GACGAGAC,-0.163
21,AGAGTCGG,-0.126
22,ATTAAACG,0.0731
23,ACAGCCAG,0.00412
24,CGTGTCGA,-0.138
25,GCGACAAA,-0.194

row,Sequence,binding signal [E-score]
1,GTCAAGAA,-0.155
2,TCAAATAA,0.00538
3,GGGATGGA,-0.269
4,CTTAAATA,0.103
5,AGGACGTA,0.169
6,ACATTCTA,0.216
7,CGTCCTCC,-0.378
8,CGACATTC,-0.0254
9,TGAGAGAA,-0.095
10,CCAGTGAC,-0.108
11,CGTCGGGC,-0.306
12,GTTCATCA,-0.00863
13,AATATATA,0.469
14,ACAGTTGG,-0.00878
15,AAGGCCTC,-0.417
16,AGGTGCTG,-0.0848
17,GATTCCCC,-0.259
18,GAGCATGA,-0.0489
19,CCACTCAC,-0.034
20,GGGATAGA,-0.162
21,CGAGAGTA,0.0024
22,CTATCCAC,-0.0226
23,CCAATGCG,-0.115
24,ATTACACA,0.283
25,TCCTTGCA,-0.052

row,Sequence,binding signal [E-score]
1,AATTTCAT,0.287
2,CGGTGTGC,-0.231
3,AAAAGTGT,0.00996
4,AGATTTAG,0.0884
5,AAGTTTCA,0.138
6,TGGACACA,-0.151
7,GAGGCGGC,-0.203
8,GATAGAAA,0.307
9,AAGACGAC,-0.209
10,ACCGTCAT,-0.0541
11,GAATAGTC,-0.0285
12,AACCATCG,-0.0207
13,CGCTGCTC,-0.226
14,CGCACACC,-0.0981
15,CGCTAGCC,-0.156
16,TGCCCTAA,-0.161
17,CCGTGTAC,-0.0486
18,CTCTTGTA,0.0452
19,CGATTTTA,0.269
20,CCCTGTGC,-0.092
21,AAAGAAAA,-0.0605
22,CGGTCGAC,-0.308
23,GCGGTTCA,0.0601
24,CCTCAGAG,-0.233
25,CTGCATCC,0.0123

row,Sequence,binding signal [E-score]
1,AACTCTGT,0.0607
2,CGCTGTGA,-0.0511
3,CACGGGAA,-0.0768
4,ACTAGGCG,-0.156
5,CTAATCCA,0.0912
6,ATTAGATA,0.367
7,TCCCCAGA,-0.4
8,CTGGTGGA,-0.272
9,CACCAAAA,-0.0363
10,GGTCACGA,-0.0974
11,CAACCAGC,-0.255
12,ATGACAAT,0.145
13,ACTTTTGC,0.0319
14,ATACGTTG,0.0846
15,AATCATGT,-0.00113
16,AGCTATAC,0.151
17,CGACCCTA,-0.153
18,ACACCTGC,-0.0529
19,CCCAGCAG,-0.167
20,ATCTAACG,0.233
21,AAACGCTG,0.0976
22,ATACATCA,0.191
23,GGTCATAA,0.0288
24,GCGTGACC,-0.0195
25,CTGGGAAC,-0.222

row,Sequence,binding signal [E-score]
1,ACACTGCG,-0.162
2,AGGCCCCT,-0.445
3,ATATCCAT,0.182
4,CTTATAGA,0.112
5,CACGGCTC,-0.111
6,GGGTCGAC,-0.32
7,AACTCAAG,-0.00285
8,ACCAGCAT,-0.00397
9,CATCAGGA,-0.0806
10,CAGGAACG,-0.125
11,ATAGGAAT,0.275
12,GTGGCGGA,-0.204
13,ATTCACGG,-0.121
14,AAAGCCCA,-0.136
15,ATATCTAG,0.346
16,ACGGGAAA,0.104
17,CGGGACGC,-0.347
18,GATGACCA,-0.106
19,CCTTCTGC,-0.222
20,GTGACAAC,-0.0442
21,AAGCGTAG,-0.0858
22,CGCATTAG,0.143
